# In the supplement of paper PMC11417369:
# ± gives the standard deviation of the averaged measurements. The list shows a part of the results.
# System: PfAP2-G AP2 domain (GST-tagged)
# Assay: gcPBM binding intensity (ln(normalized median fluorescence intensity)); higher = stronger DNA binding
# Method in brief: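 Alexa488 anti-GST antibody, scanned at 488 nm, detected GST-tagged P. falciparum DNA-binding domains that had been expressed in E. coli and incubated for 1 h on an Agilent 4 × 180k array. The array carried primer-extended double-stranded 36-bp intergenic genomic probes and negative controls. Binding intensity is the highest Masliner-normalised natural-log median intensity across replicate spots of either orientation of each probe.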
row,Sequence,gcPBM binding intensity (ln)
1,TAACATAATATAGACACACACATGTACATATGCCAA [CACACA_site1842],11.1 ± 0.64
2,TAAAAAAATAAATATACACACATATATAAATATGTA [CACACA_site6641],9.67 ± 0.042
3,ATTTTTTTTTTAAAATGTACATGAGAAATTGTATAT [XGTACX_site425],11.2 ± 0.93
4,TTTCTTATATAAGTGTACTAAAATATATATATGCAA [GTGCAC_negctrl_site546],11.2 ± 0.84
5,ATATAACTTTTCTTAACACACAAAAAACAAAAATAA [CACACA_site2380],10.2 ± 0.17
6,AAGTGTCAAAGTTACACACACAAACTTGTCATTTTT [CACACA_site837],9.99
7,GGTATACATATTAAATGTACATATTTTAACAATAAG [XGTACX_site4868],11.1 ± 0.51
8,AAATATAATAATAATTTAAGAATCTAATATTTTATA [CACACA_negctrl_site831],9.36 ± 0.17
9,TACTATATCGATACCAGTACAGATTTATAAATAATA [XGTACX_site7491],10.9 ± 0.59
10,TATATTAAGTATAAGACACACATATAGTAATAGAAA [CACACA_site5176],10.2 ± 0.33
11,TTATAAAAAAAAATAACACACAGACATAAGAATAAA [CACACA_site9383],10.11 ± 0.078
12,ATATAATTATATAAATGTACTCATTCGTTATTTTGC [XGTACX_site6132],11.3 ± 0.83
13,TATCTTATGTCTGAAAGTACAAATTTTTTTCTACTT [XGTACX_site2208],10.8 ± 0.56
14,ATATATATATAATAAAGTACAAATTCTAAATGATAT [XGTACX_site570],11 ± 0.61
15,ATTATCTATCGTTTTTGTACTTACACCTTAATACAA [XGTACX_site7337],11.1 ± 0.65
16,CTTTTTTTTTTTTTTGCGCACTGTTTAAAGGGAAAT [GTGCAC_site9815],10.4 ± 0.52
17,ACTACGAATGGTAGAGTGCAGTCTGGAGAAAAGTAC [GTGCAC_site9681],10.7 ± 0.47
18,TTTTTTTTTTTTTTTTATTTATATATATATATATAT [CACACA_negctrl_site582],9.81 ± 0.61
19,AAAAAAAATGAAAGGTGTACACATACAAACATAGAA [XGTACX_site3517],11.7 ± 0.88
20,AAATAATATATTCTATATAATAAATTATAAATATAA [GTGCAC_negctrl_site558],9.31 ± 0.34
21,ATATATATATATATATATATATATATATATTATATA [XGTACX_negctrl_site48],9.76 ± 0.64
22,ATATGACTGTTCATTTGTACGTATAATTATATACGT [XGTACX_site3372],11.5 ± 0.9

row,Sequence,gcPBM binding intensity (ln)
1,ATACAACTAATAAGTAGTACAATATACATATATTAT [XGTACX_site7086],11.5 ± 0.83
2,AAATATTTTTAGAGTGCATGTAATAAAAATATAATG [TGCATGCA_site19],10.2 ± 0.13
3,AAATGAGATATAAAATGTACATATTGTAAGTAAACA [XGTACX_site1237],11.1 ± 0.62
4,TTAATTATATCAGGACGTACTAATATAAATATATAT [XGTACX_site8909],11.1 ± 0.79
5,GGGATATATTATTATACACACATATATAAAAGCTTT [CACACA_site2445],9.89 ± 0.071
6,GTGCAAAATATTTTTACACACAAATTTTTACAACAG [CACACA_site3357],10.07 ± 0.078
7,AAAAATAAATAAGACACACACAAAAAAAAAAAAAAA [CACACA_site1432],9.91 ± 0.52
8,AATGTAACAACTTTTTGTACTTAAGAAATAATAAAT [XGTACX_site3310],10.9 ± 0.58
9,TAAAAAATTATATTCACACACATACCCATATATATA [CACACA_site4458],10 ± 0.23
10,TAAAATTTATAAACTACACACATATATATAGTAATA [CACACA_site3728],10.06 ± 0.078
11,CGTTGGTATTAAAAGGTGCAATGAAATAATATATTA,10.3 ± 0.37
12,AAGATCGCATGAAATGAACACACATAAAAAAAATAT [CACACA_site9353],10.1 ± 0.11
13,TTTTTCAGATCCTATATAGTATCATATAAATTCCAT [CACACA_negctrl_site56],9.96 ± 0.15
14,TTAAGAAAAAAAAAAAGTACACACATATAATATATA [XGTACX_site6268],11.6 ± 1
15,TAATTTAGATATATAAAGAATTAAAGTTAACATTCT [CACACA_negctrl_site726],9.46 ± 0.21
16,TATCATATATGAAGGTGTACGATTTATTATATAAAT [XGTACX_site7010],11.4 ± 0.95
17,ATTTTTGAACGGTACAGTACAGAATTTAATTAACCC [XGTACX_site47],11.2 ± 0.81
18,TTATTTAAAATTTTTATGCGTATATATATAGGAACA [CACACA_negctrl_site388],10.3 ± 0.4
19,TTAGTTTATTGGTACTGTACTTTTTTTTTCTCCATT [XGTACX_site8618],11.9 ± 0.91
20,TGTCATCATCTTAAATGTACAAAAAGGAAATATAAA [XGTACX_site1529],10.8 ± 0.36
21,TTTTTATTTACACTTTTTATTTATATATTATGTACG [CACACA_negctrl_site158],10.24 ± 0.028
22,TTTATATATTTCATAATACACACGAAAAAAAAAAAA [CACACA_site2970],10.1 ± 0.36

row,Sequence,gcPBM binding intensity (ln)
1,ATATAATCAGCTTCTCTTTTATGCTAAAAAAAAAAA [CACACA_negctrl_site1310],9.79 ± 0.35
2,ATAAATAATATAAATACACACTAAAAAAAATATATA [CACACA_site4456],9.89 ± 0.099
3,CACAAAATAAATTAAACACACAACATCATAGATGTA [CACACA_site4619],9.79 ± 0.27
4,AATTTTTATTTGTACACACATACATATATATTATAT [CACACA_site993],11.4 ± 0.83
5,ATACGAAGTACGTACACACACTTATATGTTACTAAA [CACACA_site7812],11.7 ± 1
6,TATATATGCATTAAATGATGTTCCTGTTTTTTAAAA [CACACA_negctrl_site1378],10.01 ± 0.021
7,AATAAATAAATATATACACACATATATGTCTACATA [CACACA_site3158],9.89 ± 0.014
8,TTTATATCATTTCTTAAAAAAAAGGAGGTAATAGAC [TGCATGCA_negctrl_site555],10.4 ± 0.42
9,TTTTTATTAAGACATGCATGGAAACGCACTATTTTA [TGCATGCA_site999],10.2 ± 0.32
10,TTCGATGAATATACAAGTACATATCCTTACGAACTG [XGTACX_site1650],11.1 ± 0.88
11,TTGCATTACGAACATACACACAGAATAACTGAAAAC [CACACA_site3025],10.2 ± 0.11
12,TATGTTGATGATATTACACACCCAATGAGAAAAGGA [CACACA_site7060],10.3 ± 0.2
13,CAACCATTTGTAGGTAAACACACATTATTATTAATA [CACACA_site8842],10.1 ± 0.11
14,GTGTGATATAATTTTTTTAGAGCTTTATAATATTAT [CACACA_negctrl_site233],10 ± 0.2
15,TCAATTAATTATTTTTGTACACAAGAATTACTGAAT [XGTACX_site6401],11.2 ± 0.83
16,AAGTTACAGAATATCACACATAAATTATCTGTATAT [CACACA_site5116],9.69 ± 0.2
17,GTTAAGCAATATATATGTACTTATGGAATAGAAAAA [XGTACX_site3693],11.2 ± 0.81
18,ATACACACAGCCTAAACATGCATATAGAAAAAAGAA [TGCATGCA_site1028],10.2 ± 0.32
19,TTTGTCAAATAATATTGTACTAAAAAATTTTGCCTT [XGTACX_site7485],11.1 ± 0.64
20,TATTTGTAATATAACACACACAAAAAAAGACTCGGA [CACACA_site1681],10.3 ± 0.31
21,TATACATATACATATACACACACACCCATAAATAAA [CACACA_site8372],10.4 ± 0.28
22,TTAACACATGCTTGGTCACACACGTATGCATATTTA [CACACA_site2127],10.7 ± 0.39

row,Sequence,gcPBM binding intensity (ln)
1,TTTATTTACTATTAAAGTACTAAATCATATAATTAT [XGTACX_site2580],10.8 ± 0.54
2,GAAATAAGGGTTATTTCACACATTGCATGTATTTTC [CACACA_site5752],9.98 ± 0.099
3,ATATATATTAATTTTGTGCACAAATGGAAATGTTTG [GTGCAC_site9971],10.5 ± 0.24
4,AATACATCATTAAAATGTACATATATATATACATTA [XGTACX_site132],10.9 ± 0.67
5,ATTATAATAATGTGATGTACATTAATTGTCTTCCTA [XGTACX_site5404],11 ± 0.48
6,TTTTGGCTTCTAATATTATACAAAATGGTAAGGAAA [TGCATGCA_negctrl_site169],10.5 ± 0.91
7,ATGCAATAATAATATTGTACGCATATATTTTTTACT [XGTACX_site3384],11.6 ± 1.3
8,AGAATACAAAATTGCACACATATTGTGAAAATGTTA [CACACA_site4005],9.98 ± 0.057
9,TTATTTATTTATTGGGTGCACTTGATTTAAATATGC,10.5 ± 0.45
10,AAAAAAAAAAAAAAAACACACACATATATATAATAT [CACACA_site9038],10.2 ± 0.3
11,TTTTTTTTTTTTTTATGTACTAAAAAATGAAAAATA [XGTACX_site6812],10.8 ± 0.41
12,AAATACTTAACATTGGTGCATATTTGTAAAATTATT [GTGCAC_site9515],10.2 ± 0.25
13,GATTATTTTATAAGTACACACATTTATCTATAATAA [CACACA_site7256],11.5 ± 0.98
14,AATACATGCTTATTTTAACACACAAATGGTAGTAAT [CACACA_site8154],10.02 ± 0.078
15,CTTATATTTAGACACACACACAATAAAATGAAAAAA [CACACA_site1031],10.3 ± 0.34
16,AACCATGTTAACAACGCATGTATATCTATGGGTTTA [TGCATGCA_site419],9.74 ± 0.085
17,GATTAATACACATTCTTCCGACATAATAAGAAAAAG [GTGCAC_negctrl_site7],10.3 ± 0.26
18,CACCCACACCAACACACACACATATATAATATATAT [CACACA_site595],10.3 ± 0.33
19,CCATAATATTATAGACGTACGAATATATATAAAAGA [XGTACX_site7295],11.1 ± 0.65
20,TTATAAAATATTTTTTGTACACATAATAGTAAGACT [XGTACX_site933],11.5 ± 0.91
21,AGCTAATATATCTTATATTCATATAAAAAAATATAT [CACACA_negctrl_site1786],9.69 ± 0.12
22,TGACTTTTTTTATGTTGTACTTATTATAAAAAAAAT [XGTACX_site7736],11.3 ± 0.95
